Laboratory results published in PubChem BioAssay AID686979 (National Center for Advancing Translational Sciences (NCATS), 2013).
Several values for one entry are separate records, joined by “and”; a condition that tells them apart may be missing. Equal entries are not always repeated. Hit rate of the full screen: of about 420,000 compounds, about 50,000 (12%) were called active. The shares of active, inactive and inconclusive entries below differ from those in the screen. Calls come from the whole dose curve; as a rule, active = well fitted inhibition curve with a large enough effect; inconclusive = small, poorly fitted or top-dose-only effect; inactive = flat fitted curve, though single readings scatter. Where the call is inconclusive, the potency comes from a doubtful curve fit.

test: qHTS for Inhibitors of human tyrosyl-DNA phosphodiesterase 1 (TDP1): qHTS in cells in presence of CPT; conditions: chicken DT40 Tdp1-/-;hTDP1 cells + 20 nM CPT, ATP luminescence, 48 h; activity change, negative = growth inhibition: at 46.2 µM (top of the series) unless noted; note: nearly all actives have a fitted effect of over 55% in size
Method in brief: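 Chicken DT40 Tdp1-/- cells complemented with human TDP1, 400 cells/well, exposed to compounds plus 20 nM camptothecin for at least 48 h at 37 C; viability read as ATP content by CellTiter-Glo luminescence.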
% is set by controls: 0 for no effect and ±100 for the full control effect; potency is the fitted concentration of half-maximal effect; tags give direction and shape of the fitted curve.

| SMILES | activity change, negative = growth inhibition | Potency |
| --- | --- | --- |
| N#C/C(=C\c1ccc(OC(=O)c2ccccn2)cc1)C(N)=O | inactive: -3.69% |  |
| CS(=O)(=O)Nc1cccc(-c2nc(NC3CC3)c3ccccc3n2)c1 |  | inconclusive: 29.1 µM [inhibitor, single point] |
| CCn1cc(C(=O)NCC2CCCO2)c(=O)c2cc(S(=O)(=O)N3CCCCCC3)ccc21 (configuration not stated) |  | inconclusive: 2.06 µM [inhibitor, full curve, poor fit] |
| CS(=O)(=O)c1cccc(-c2nnc(NC(=O)c3ccc4c(c3)OCCO4)o2)c1 |  | inconclusive: 20.6 µM [inhibitor, single point] |
| CC1(C)OC(=O)C=C[C@]2(C)[C@H]3CC[C@@]4(C)[C@H](c5ccoc5)OC(=O)[C@H]5O[C@]54[C@]3(C)C(=O)C[C@@H]12 | inactive: -10.6% |  |
| CN(C)c1ccnc(Oc2ccccc2)c1C#N | inconclusive: -33% [inhibitor] |  |
| CN(C)S(=O)(=O)c1cccc(CNCC2COc3ccccc3O2)c1 (configuration not stated) | inactive: -23.2% |  |
| O=C1CCC/C1=C/Nc1cccc(F)c1 |  | inconclusive: 29.1 µM [inhibitor, single point] |
| C=CCc1ccc(OCC(O)CO)c(OC)c1 (configuration not stated) | inactive: -1.22% |  |
| COc1ccc(C(CNC(=O)c2cccc(S(=O)(=O)Nc3ccc(Br)cc3)c2)N(C)C)cc1 (configuration not stated) |  | inconclusive: 25.9 µM [inhibitor, single point] |
| CCNC(=S)N1CCN(CCN2C(=O)c3cccc4cccc(c34)C2=O)CC1 | inactive: -27.2% |  |
| COc1ccc(-c2nc(NC(=O)CSc3nnc(C)s3)ns2)cc1 |  | inconclusive: 35.5 µM [inhibitor, single point] |
| O=C(/C=C/c1ccc(S(=O)(=O)N2CCOCC2)cc1)NCc1ccccc1F |  | inconclusive: 29.1 µM [inhibitor, single point] |
| COC(=O)c1ccc(CNC(=O)C2CCC(=O)N(CCc3ccccn3)C2)cc1 (configuration not stated) | inactive: 24.9% |  |
| CCN1/C(=C/c2sc(-c3ccccc3C)c[n+]2C)Sc2ccccc21 |  | active: 0.259 µM |
| CCOC(=O)N1CCC(NC(=O)c2cnn(-c3ccc(C)cc3C)c2C2CCN(C(=O)OC(C)(C)C)CC2)CC1 | inactive: -27% |  |
| Cc1ccc(NC(=O)c2ccc(C(C)(C)C)cc2)cc1-n1cnnn1 |  | inconclusive: 20.6 µM [inhibitor, single point] |
| COc1ccccc1CCc1nnc(CCC(=O)NCC(C)Oc2cccnc2)o1 (configuration not stated) | inactive: -17.3% |  |
| COc1ccc2nc(NC(=O)c3cccc(OCc4c(C)noc4C)c3)sc2c1 |  | active: 3.26 µM |
| COc1ccc(/C(C)=N/NC(=O)c2ccc(N(C)C)cc2)cc1 | inactive: -0.979% |  |
| CC1=CC(=O)Nc2ncccc2O1 |  | inconclusive: 29.1 µM [inhibitor, single point] |
| CCOC(=O)c1c(NC(=O)C(NCCN(C)C)c2ccccc2)sc2c1CCCC2 (configuration not stated) |  | active: 0.651 µM |
| COc1ccccc1NC(=O)C(C)Sc1nc(-c2ccccc2)cn1N (configuration not stated) | inconclusive: -35.6% [inhibitor] |  |
| CCCCCC(=O)N1C[C@@H](n2cc(C3CC3)nn2)[C@H](O)C[C@@H]1c1ccc(C)cc1 |  | inconclusive: 18.4 µM [inhibitor, single point] |
| Cc1ccc(S(=O)(=O)Nc2ccc3nc(C)sc3c2)c(C)c1 |  | inconclusive: 16.4 µM [inhibitor, partial curve, poor fit] |
| CC(C)(C)c1ccc(Cc2n[nH]c(=S)[nH]c2=O)cc1 |  | inconclusive: 18.4 µM [inhibitor, partial curve, poor fit] |

| SMILES | activity change, negative = growth inhibition | Potency |
| --- | --- | --- |
| Cc1ccc(NC(=O)CN2C(=O)CSc3ccc(S(=O)(=O)N4CCCCC4)cc32)cc1 |  | inconclusive: 16.4 µM [inhibitor, single point] |
| Oc1ccccc1Nc1ccccn1 | inactive: 0.435% |  |
| O=C(Cn1ncc2ccccc21)N1CCN(c2cccc(C(F)(F)F)c2)CC1 |  | inconclusive: 7.31 µM [inhibitor, full curve, poor fit] |
| CC(=O)Nc1cccc(Nc2nc3ccccc3n3c(C)nnc23)c1 |  | active: 2.59 µM |
| CCN(/N=C/c1ccccc1)c1cc(=O)n(C)c(=O)[nH]1 | inactive: -0.0785% |  |
| CCC(O)(CC)C(=O)N/N=C/c1cc(Br)cc(Br)c1O |  | active: 20.6 µM |
| CCOc1ccc(N(C)S(=O)(=O)c2ccc(-c3ccc(=O)[nH]n3)s2)cc1 | inactive: -20.5% |  |
| CCCc1nnc(NC(=O)CCC(=O)N2CCCCCC2)s1 | inactive: -7.38% |  |
| O=[N+]([O-])c1ccc(-n2nnnc2-c2ccccc2)c([N+](=O)[O-])c1 |  | active: 3.66 µM |
| O=C(CN1CCCN(Cc2ccc(F)cc2)S1(=O)=O)Nc1ccc2c(c1)OCCO2 | inactive: -2.83% |  |
| CCCCOc1cccc(C(=O)Nc2ccc(N3CCN(CC)CC3)cc2)c1 |  | inconclusive: 20.6 µM [inhibitor, single point] |
| Cc1ccc([C@H]2C(C(=O)O)=CC[C@@H](c3cccc(Cl)c3)N2S(=O)(=O)c2ccc(C)cc2)cc1 | inactive: -13.3% |  |
| COc1ccc(CCNC(=O)C(=O)c2cn(CC(=O)N3CCCC3)c3ccccc23)cc1 | inactive: -12.7% |  |
| CN(C)/C=C1/Oc2c(ccc3ccccc23)C1=O | inactive: 10.6% |  |
| O=C(Cc1cccs1)NNC(=S)NC(=O)c1ccccc1 |  | inconclusive: 20.6 µM [inhibitor, single point] |
| Cc1ccc(COc2ccc(/C=N/O)cc2)cc1 | inactive: -29.1% |  |
| CCOc1ccccc1N(C)C(=O)Cn1nc(Cc2ccncc2)c2ccccc2c1=O | inactive: -17.1% |  |
| CCOC(=O)c1c(C)[nH]c(C)c1S(=O)(=O)N(C)CC(=O)NCc1ccc(F)cc1 | inactive: -0.833% |  |
| Cc1onc(-c2ccc(Cl)cc2)c1-c1ccnn1S(=O)(=O)c1cccc(C(F)(F)F)c1 |  | inconclusive: 16.4 µM [inhibitor, partial curve, poor fit] |
| CCOC(=O)C1=C(O)CSC1=Nc1cccc2ccccc12 | inconclusive: -33.9% [inhibitor] |  |
| CCc1nn(CCCC(=O)NCc2ccc(C)cc2)c(=O)c2cc3occc3n12 |  | inconclusive: 16.4 µM [inhibitor, single point] and inconclusive: 20.6 µM [inhibitor, single point] |
| O=C(COC(=O)CN1C(=O)NC2(CCCCC2)C1=O)Nc1cc(F)ccc1F |  | inconclusive: 9.2 µM [inhibitor, partial curve] |
| Cc1cc(C(=O)N/N=C/c2cc(Br)c(Br)o2)n[nH]1 | inactive: -12.9% |  |
| Cc1noc(C)c1CSCc1ccc(Cl)cc1 | inactive: -14.5% |  |
| CN(Cc1ccccc1)C(=O)Nc1c(Cl)cccc1Cl | inactive: -5.11% |  |
| CCOC(=O)c1cc(C)nc(S(C)(=O)=O)c1C#N |  | inconclusive: 29.1 µM [inhibitor, single point] |

| SMILES | activity change, negative = growth inhibition | Potency |
| --- | --- | --- |
| CCN1CCSc2ccc(C(=O)NCc3cc(Br)ccc3OC)cc21 |  | active: 16.4 µM |
| O=C(Nc1cccc2ccccc12)NC1Cc2ccccc2C1 | inactive: 17.2% |  |
| CC(=O)CCS(=O)(=O)c1ccc(C)c(C)c1 |  | inconclusive: 29.1 µM [inhibitor, single point] |
| O=C(COc1ccccc1C(=O)Nc1ccccc1)Nc1ccc(Br)cc1 |  | inconclusive: 20 µM [inhibitor, single point] |
| CCCC[P+](CCCC)(CCCC)Cc1ccc(NC(=O)[C@@H](Cc2ccc3ccccc3c2)NC(=NC2CCCCC2)NC2CCCCC2)cc1 |  | active: 13.3 µM |
| CCCC(=O)NC(c1ccc(OC)cc1)c1c(O)ccc2ccccc12 (configuration not stated) |  | inconclusive: 29.1 µM [inhibitor, single point] |
| COc1ccc(OC)c(NC(=O)c2cnc(N3CCCCC3)c3ccccc23)c1 |  | active: 10.3 µM |
| CCOC(=O)Cn1cnc2scc(-c3ccc(C)c(C)c3)c2c1=O |  | inconclusive: 4.61 µM [inhibitor, single point] |
| CCOC(=O)c1c(NC(=O)CCCOc2ccc(C(C)(C)C)cc2)sc2c1CCCC2 | inactive: -2.73% |  |
| CCCCC1=CC2=CC(=O)C(C)(OC(=O)CC)C(=O)C2=CN1C1CCCC1 (configuration not stated) |  | inconclusive: 18.4 µM [inhibitor, single point] |
| CCc1c(-c2ccccc2)ncn1Cc1cccc(-c2ccccc2)c1 |  | active: 8.2 µM |
| CN(C)S(=O)(=O)c1ccc(Cl)c(NC(=O)COc2ccccc2[N+](=O)[O-])c1 |  | inconclusive: 0.651 µM [inhibitor, full curve, poor fit] |
| COc1ccc(C2CC(c3ccccc3OC(C)=O)=NN2C(=O)/C=C/c2ccccc2)cc1 (configuration not stated) |  | active: 20.6 µM |
| CNC(=S)N(CCc1c(C)[nH]c2ccc(F)cc12)Cc1ccco1 |  | inconclusive: 29.1 µM [inhibitor, single point] |
| CCOC(=O)N1CCN(c2ncnc3nc[nH]c23)CC1 | inactive: -23.8% |  |
| S=C(N/N=C/c1ccco1)NC1CC2CCC1C2 (configuration not stated) |  | inconclusive: 20.6 µM [inhibitor, single point] |
| CCOc1ccccc1NC(=S)N1CCC(NC(=O)c2ccco2)CC1 | inactive: 0.61% |  |
| COC(=O)CSC1=C(C#N)C(c2ccc3c(c2)OCO3)C2=C(CCCC2=O)N1 (configuration not stated) | inactive: -1.42% |  |
| COc1ccccc1CCC(=O)Nc1cccc(S(=O)(=O)N2CCCCCC2)c1 |  | inconclusive: 25.9 µM [inhibitor, single point] |
| CCCSc1ncc(Cl)c(C(=O)N(Cc2cccc(Cl)c2)C2CCS(=O)(=O)C2)n1 (configuration not stated) |  | active: 23.1 µM |
| CCOc1ccc(-c2cc(NC(=O)Nc3ccc(Cl)cc3)c(C(=O)OC)s2)cc1 |  | inconclusive: 20.6 µM [inhibitor, single point] |
| COc1cc(OC)cc(C(=O)Nn2cc(C(=O)Nc3ccc(F)cc3F)c3ccccc3c2=O)c1 |  | active: 13 µM |
| CCOC(=O)C1CCCN(CCC(=O)Nc2c(C(=O)OC)[nH]c3cc(OC)ccc23)C1 (configuration not stated) | inactive: 0.878% |  |
| CC1CN(CCCCN2C(=O)c3ccccc3C2=O)CC(C)O1 (configuration not stated) | inactive: -11.2% |  |
| COc1ccccc1NC(=O)c1ccc(-c2nn(C)c(=O)c3ccccc23)cc1 |  | inconclusive: 20.6 µM [inhibitor, single point] |
